Experimental findings from PubChem BioAssay AID1508624 (National Center for Advancing Translational Sciences (NCATS), 2021) are described below.

The structures appear in SMILES notation. About 120 (0.25%) of roughly 48,000 compounds were called active. Not shown: some 4% with an inconclusive outcome. The call rests on the fitted dose curve; in most records, active means well fitted activation curve with a large enough effect; inconclusive means small, poorly fitted or top-dose-only effect, or another doubt; inactive means no such curve, though single readings can be large or run the other way. The list shows a part of the results.

A short description of this assay: Primary qHTS for Identification of Small Molecule Activators of Huntingtin-Antisense Promoter Activity. Further: nearly all actives have a fitted effect of over 55% in size. Conditions: HEK293 HTT-AS promoter firefly luciferase reporter, 24 h; series mostly up to 57.5 µM; activity change, positive = activation: at the top concentration. An outline of the steps: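 Firefly luciferase signal from promoter-reporter HEK293 cells was scaled between vehicle (0%) and zero RLU (-100%). Compounds were tested at final concentrations of up to 57.5 uM over 24 h at 37 degrees C. PTC124 at 50 uM final served as control inhibitor.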
On the technique in general: qHTS replaces the single test concentration by a dilution series.
For the molecule `COc1ccc(NC(=O)CCCc2nnc3n(CCC(C)C)c(=O)c4sccc4n23)c(OC)c1`, the “activity change, positive = activation” value was inactive: -3.2%.

Take `COCCNC(=O)c1ccc(-n2c(-c3ccccc3)cc3c2CCCCC3)cc1`: the “activity change, positive = activation” value is inactive: 8.94%.

Turning to `COc1ccc(C2=NS(=O)(=O)N(C)C(C(=O)NCc3ccccc3)=C2)cc1OC`, the “activity change, positive = activation” value is inactive: -13%.

With `Cc1ccc(S(=O)(=O)c2nc(-c3ccccc3Cl)oc2N2CCCCCC2)cc1`, the “activity change, positive = activation” value was inactive: -24.7%.

On to `CCc1ccc(NC(=O)C(=O)NCC(c2ccc3c(c2)OCO3)N2CCOCC2)cc1` (configuration not stated), for which the “activity change, positive = activation” value was inactive: -14.9%.

Turning to `Cc1ccc(Cl)c(NC(=O)Nc2csc3c2CCCC3)c1`, the “activity change, positive = activation” value was inactive: 5.84%.

Consider `CN1C(=O)c2ccccc2Sc2ccc(NC(=O)COc3ccccc3)cc21`, for which the “activity change, positive = activation” value was inactive: -47.9%.

As to `Cc1ncc([N+](=O)[O-])n1CC(O)CCl` (configuration not stated), the “activity change, positive = activation” value was inactive: -7.57%.

`Cc1oc(-c2ccc(Cl)cc2)nc1Cn1c(=O)cc(C)c2c(C)nn(-c3cccc(F)c3)c21`: the “activity change, positive = activation” value is inactive: -15.6%.

In the case of `CCn1cc(C(=O)N2CCN(c3ccc(F)cc3)CC2)c(=O)c2cc(S(=O)(=O)N3CCOCC3)ccc21`, the “activity change, positive = activation” value is inactive: -2.25%.

`COc1ccc(NC(=O)C(=O)NCC(c2ccc3c(c2)OCO3)N2CCN(C)CC2)cc1` (configuration not stated): the “activity change, positive = activation” value is inactive: -7.27%.

Turning to `COc1ccc(N2CCN(c3c4c(nc5nncn35)CCC4)CC2)cc1`, the “activity change, positive = activation” value was inactive: -52.3%.

On to `CCOc1cc(CNC(=O)CCCn2c(=O)c3cccn3c3cccnc32)cc(OCC)c1OCC`, for which the “activity change, positive = activation” value was inactive: -9.74%.

Regarding `COc1ccc(CCNC(=O)c2cc(Nc3cc(C)cc(C)c3)nc3ccccc23)cc1OC`, the “activity change, positive = activation” value is inactive: -32.9%.

In the case of `CCc1ccccc1NC(=O)CSc1ncc(S(=O)(=O)c2ccccc2)c(N)n1`, the “activity change, positive = activation” value is inactive: -27.3%.

Turning to `CC(=O)Nc1cccc(NC(=O)CSc2cn(CC(=O)N(C(C)C)C(C)C)c3ccccc23)c1`, the “activity change, positive = activation” value was inactive: -14.6%.

On to `CCc1ccccc1NC(=O)Cn1nnc(-c2nc(-c3ccc(C)cc3)no2)c1N`, for which the “activity change, positive = activation” value was inactive: -8.39%.

In the case of `COc1ccc(C[C@@H](C)[C@@H](C)Cc2ccc(OC)c(OC)c2)cc1OC`, the “activity change, positive = activation” value is inactive: -51.3%.

In the case of `CC[C@H]1CN2CCc3cc(OC)c(OC)cc3[C@H]2C[C@@H]1C[C@@H]1NCCc2cc(OC)c(OC)cc21`, the “activity change, positive = activation” value was inactive: -35.1%.

`Cc1ccc2c(c1)sc1nc(-c3cc4ccccc4oc3=O)cn12`: the “activity change, positive = activation” value was inactive: -86.6%.

Consider `CCOC(=O)c1ccccc1NC(=O)CN1C(=O)CC(c2ccco2)Sc2ccccc21` (configuration not stated), for which the “activity change, positive = activation” value was inactive: -27.4%.

For `O=C(c1ccc2c(c1)N(Cc1ccc(Cl)cc1)C(=O)c1ccccc1S2=O)N1CCN(c2ccccc2F)CC1` (configuration not stated), the “activity change, positive = activation” value was inactive: -30.4%.

As for `COc1ccc(-c2nc(C(N)=O)c3c(n2)n(-c2ccccc2OC)c(=O)n3C)c(OC)c1`, the “activity change, positive = activation” value was inactive: -20.3%.

For the molecule `O=C(c1ccc(F)cc1)N1CCC(c2nc3ccccc3o2)CC1`, the “activity change, positive = activation” value was inactive: -18.1%.

For the molecule `CSc1cccc(NC(=O)C2CCN(c3ncnc4c3nc3n4CCCCC3)CC2)c1`, the “activity change, positive = activation” value is inactive: -22.1%.

`CC(C)NC(=O)CC(=O)Nc1ccc2nc3n(c(=O)c2c1)CCCCC3`: the “activity change, positive = activation” value is inactive: -5.43%.

Take `N=C(N)N`: the “activity change, positive = activation” value was inactive: -2.35%.

Turning to `CCOc1ccccc1NC(=O)C(NS(=O)(=O)c1ccc2c(c1)CCC(=O)N2)c1ccccc1` (configuration not stated), the “activity change, positive = activation” value was inactive: -23%.

As for `O=C(NC1CCCCCC1)c1cc2c(Cl)nc3ccccc3c2s1`, the “activity change, positive = activation” value is inactive: -17.2%.

In the case of `COc1ccc(CNC(=O)c2ccc3c(c2)N(C)C(=O)C2CCCCN32)cc1OC` (configuration not stated), the “activity change, positive = activation” value was inactive: -4.24%.

On to `CC(C)(C)c1ccc(Oc2nc3ccccn3c(=O)c2/C=C(\C#N)c2nc3ccccc3[nH]2)cc1`, for which the activity change, positive = activation is inactive: 3.14% [at 11.5 µM, percent change from vehicle, -100% = no light].

In the case of `O=C(NC1CCOCC1)c1ccc(-c2cc(-c3cn[nH]c3-c3ccccn3)ccn2)cc1`, the “activity change, positive = activation” value was inactive: -5.92%.

For `O=C(CCC(=O)N1CC2CCCN2c2ccccc21)NCc1ccccc1` (configuration not stated), the “activity change, positive = activation” value is inactive: 0.4%.

In the case of `CCOC(=O)c1ccc(NC(=O)C2=C(C)Nc3nc(SCc4ccc(Cl)cc4)nn3C2c2ccc(C)cc2)cc1` (configuration not stated), the “activity change, positive = activation” value is inactive: -7.3%.

Turning to `CCOc1ccc(CC(=O)NCCc2csc(-c3ccc(C(F)(F)F)cc3)n2)cc1`, the “activity change, positive = activation” value was inactive: -1.82%.

As to `Cc1nn(C(=O)COc2ccccc2)c(C)c1Sc1ccccc1`, the “activity change, positive = activation” value is inactive: -16.1%.

For the molecule `COc1ccc(NC(=O)CN2C(=O)COc3ccc(S(=O)(=O)Nc4ccccc4)cc32)cc1OC`, the “activity change, positive = activation” value is inactive: -9.57%.

Regarding `CCN(c1cccc(C)c1)S(=O)(=O)c1ccc2c(c1)NC(=O)CCS2`, the “activity change, positive = activation” value was inactive: -20.8%.

Regarding `O=C(COCc1cc(-c2cccs2)on1)Nc1cccc(Cl)c1Cl`, the “activity change, positive = activation” value is inactive: 16.7%.

Regarding `O=C(NC1CC(=O)N(c2ccccc2)C1)c1ccc(Br)o1` (configuration not stated), the “activity change, positive = activation” value is inactive: -9.08%.

`O=C(NCCCN1CCN(c2cccc(Cl)c2)CC1)Nc1ccccc1C(F)(F)F`: the “activity change, positive = activation” value was inactive: -17.2%.

As for `COc1cccc(CNC(=O)C2CCN(c3nn4c(=O)cc(C)nc4s3)CC2)c1`, the “activity change, positive = activation” value is inactive: -12.3%.

With `CCN(CC)CCOC(=O)C1(c2ccccc2)CCCC1`, the “activity change, positive = activation” value was inactive: -5.03%.

For the molecule `Cc1cccc(N(CC(=O)NCCSCc2ccc(Cl)cc2)S(C)(=O)=O)c1C`, the “activity change, positive = activation” value is inactive: -26%.

Turning to `CCOc1ccc(NC(=O)c2cc3c(n(-c4ccc(OC)cc4)c2=O)CC(C)(C)CC3=O)cc1`, the “activity change, positive = activation” value is inactive: -11.7%.

With `CC(=O)c1cccc(NC(=O)c2cccn2-c2nnc(N3CCCCC3)s2)c1`, the “activity change, positive = activation” value was inactive: -4.31%.

For the molecule `COc1ccccc1Cn1c(CNS(=O)(=O)c2ccccc2Cl)nc2cccnc21`, the “activity change, positive = activation” value is inactive: -30.7%.
